For this assay, the target named is WDR5 (Homo sapiens, UniProt P61964). Nature of the assay: biochemical. In kind it is binding. Particulars: WDR5-His tag (Δ23, residues 24-334) 2 nM, 10mer-Thr-FAM probe 150 nM, Tb-anti-HIS 1 nM, 60 min, room temperature.
[1] abbreviates: read-out: Ki for Inhibition of WDR5 by TR-FRET assay.

Where two headings read alike, the source gives them in different places.

Take `COc1ccnc(CN2CCc3c(cc(Cn4ccn(C)c4=N)cc3-c3cn(C)nc3C)C2=O)c1` [Example 42, 5-(1,3-Dimethyl-1H-pyrazol-4-yl)-7-((2-imino-3-methyl-2,3-dihydro-1H-imidazol-1-yl)methyl)-2-((4-methoxypyridin-2-yl)methyl)-3,4-dihydroisoquinolin-1(2H)-one]: the Ki (as a rule, a dissociation constant, usually derived from enzyme kinetics or from competition with a known ligand) under setting [1] was less than 50 pM.

As to `Cc1nccn1Cc1cc2c(cc1F)CCN(Cc1ccc(Cl)c(Cl)c1)C2=O` [Example 4, 2-(3,4-Dichlorobenzyl)-6-fluoro-7-((2-methyl-1H-imidazol-1-yl)methyl)-3,4-dihydroisoquinolin-1(2H)-one], under setting [1], the Ki was 49000 pM. Consider `Cc1nccn1Cc1cc2c(c(-c3cn(C)nc3C(F)(F)F)c1)CCN(Cc1cccc(Br)c1)C2=O` [Example 207, 2-(3-Bromobenzyl)-7-((2-methyl-1H-imidazol-1-yl)methyl)-5-(1-methyl-3-(trifluoromethyl)-1H-pyrazol-4-yl)-3,4-dihydroisoquinolin-1(2H)-one], for which the Ki under setting [1] is less than 50 pM. As to `COc1cc(CN2CCc3c(cc(Cn4cc(C)nc4C)cc3-c3ccc(F)cc3C)C2=O)cc(OC)c1` [Example 18, 2-(3,5-Dimethoxybenzyl)-7-((2,4-dimethyl-1H-imidazol-1-yl)methyl)-5-(4-fluoro-2-methylphenyl)-3,4-dihydroisoquinolin-1(2H)-one], the Ki under setting [1] was found to be 410 pM. On the same count and under the same terms, then `COc1ccnc(CN2CCc3c(cc(Cn4ccn(C5CC5)c4=N)cc3-c3cn(C)nc3C)C2=O)c1` [Example 48], with less than 50 pM. For the compound `COc1ccnc(CN2CCc3c(cc(Cn4ccccc4=N)cc3-c3cn(C)nc3C)C2=O)c1` [Example 117, 5-(1,3-Dimethyl-1H-pyrazol-4-yl)-7-((2-iminopyridin-1(2H)-yl)methyl)-2-((4-methoxypyridin-2-yl)methyl)-3,4-dihydroisoquinolin-1(2H)-one], under setting [1], the inhibition constant (Ki) stood at 3100 pM. Same read-out and setting: then `Cc1ccnc(CN2CCc3c(cc(CN4CCCC4=N)cc3-c3cn(C)nc3C(F)(F)F)C2=O)c1` [Example 112, 7-((2-Iminopyrrolidin-1-yl)methyl)-5-(1-methyl-3-(trifluoromethyl)-1H-pyrazol-4-yl)-2-((4-methylpyridin-2-yl)methyl)-3,4-dihydroisoquinolin-1(2H)-one], with less than 20 pM; and `COc1ccnc(CN2CCc3c(cc(CN4CCCC4=N)cc3-c3cn(C)nc3C(F)(F)F)C2=O)c1` [Example 108, 7-((2-Iminopyrrolidin-1-yl)methyl)-2-((4-methoxypyridin-2-yl)methyl)-5-(1-methyl-3-(trifluoromethyl)-1H-pyrazol-4-yl)-3,4-dihydroisoquinolin-1(2H)-one], with less than 50 pM; and `O=C1c2cc(Cn3ccnc3)ccc2CCN1Cc1cc(Cl)cc(Cl)c1` [Example 1, 7-((1H-Imidazol-1-yl)methyl)-2-(3,5-dichlorobenzyl)-3,4-dihydroisoquinolin-1(2H)-one], with 7300 pM.

For the compound `COc1ccnc(CN2CCc3c(cc(Cn4nc5ccccn5c4=N)cc3-c3cn(C)nc3C(F)(F)F)C2=O)c1` [Example 125, 7-((3-Imino-[1,2,4]triazolo[4,3-a]pyridin-2(3H)-yl)methyl)-2-((4-methoxypyridin-2-yl)methyl)-5-(1-methyl-3-(trifluoromethyl)-1H-pyrazol-4-yl)-3,4-dihydroisoquinolin-1(2H)-one], under setting [1], the Ki is 5400 pM. The same measure, in the same setting: then `CCn1cc(-c2cc(Cn3ccn(C)c3=N)cc3c2CCN([C@@H](C)c2cc(OC)ccn2)C3=O)c(C(F)(F)F)n1` [Example 66, (S)-5-(1-Ethyl-3-(trifluoromethyl)-1H-pyrazol-4-yl)-7-((2-imino-3-methyl-2,3-dihydro-1H-imidazol-1-yl)methyl)-2-(1-(4-methoxypyridin-2-yl)ethyl)-3,4-dihydroisoquinolin-1(2H)-one], with less than 50 pM; and `Cc1ccnc(CN2CCc3c(cc(Cn4ccn(C5CC5)c4=N)cc3-c3cn(C)nc3C(F)(F)F)C2=O)c1` [Example 51, 7-((3-Cyclopropyl-2-imino-2,3-dihydro-1H-imidazol-1-yl)methyl)-5-(1-methyl-3-(trifluoromethyl)-1H-pyrazol-4-yl)-2-((4-methylpyridin-2-yl)methyl)-3,4-dihydroisoquinolin-1(2H)-one], with less than 50 pM; and `COc1cc(CN2CCc3c(cc(Cn4ccn(C)c4=N)cc3-c3cn(C)nc3C)C2=O)cc(OC)c1` [Example 70, 2-(3,5-Dimethoxybenzyl)-5-(1,3-dimethyl-1H-pyrazol-4-yl)-7-((2-imino-3-methyl-2,3-dihydro-1H-imidazol-1-yl)methyl)-3,4-dihydroisoquinolin-1(2H)-one], with less than 50 pM. Still for that read-out and setting: for `COc1ccnc(CN2CCc3c(cc(CNC4=NCCO4)cc3-c3cn(C)nc3C)C2=O)c1` [Example 134, 7-(((4,5-Dihydrooxazol-2-yl)amino)methyl)-5-(1,3-dimethyl-1H-pyrazol-4-yl)-2-((4-methoxypyridin-2-yl)methyl)-3,4-dihydroisoquinolin-1(2H)-one] the value was 940 pM; for `CCn1cc(-c2cc(Cn3ccn(C)c3=N)cc3c2CCN(Cc2cc(OC)ccn2)C3=O)c(C(F)(F)F)n1` [Example 57, 5-(1-Ethyl-3-(trifluoromethyl)-1H-pyrazol-4-yl)-7-((2-imino-3-methyl-2,3-dihydro-1H-imidazol-1-yl)methyl)-2-((4-methoxypyridin-2-yl)methyl)-3,4-dihydroisoquinolin-1(2H)-one], less than 50 pM. Regarding `CCn1cc(-c2cc(Cn3ccsc3=N)cc3c2CCN([C@@H](C)c2cc(OC)ccn2)C3=O)c(C(F)(F)F)n1` [Example 104, (S)-5-(1-Ethyl-3-(trifluoromethyl)-1H-pyrazol-4-yl)-7-((2-iminothiazol-3(2H)-yl)methyl)-2-(1-(4-methoxypyridin-2-yl)ethyl)-3,4-dihydroisoquinolin-1(2H)-one], under setting [1], the Ki was less than 50 pM.

On to `CCn1cc(-c2cc(Cn3ccoc3=N)cc3c2CCN(Cc2cc(C)nn2C)C3=O)c(C(F)(F)F)n1` [Example 94, 2-((1,3-Dimethyl-1H-pyrazol-5-yl)methyl)-5-(1-ethyl-3-(trifluoromethyl)-1H-pyrazol-4-yl)-7-((2-iminooxazol-3(2H)-yl)methyl)-3,4-dihydroisoquinolin-1(2H)-one], for which the Ki under setting [1] was less than 50 pM. In turn, `CCn1cc(-c2cc(Cc3cnc[nH]3)cc3c2CCN([C@@H](C)c2cc(OC)ccn2)C3=O)c(C(F)(F)F)n1` [Example 250, (S)-7-((1H-Imidazol-5-yl)methyl)-5-(1-ethyl-3-(trifluoromethyl)-1H-pyrazol-4-yl)-2-(1-(4-methoxypyridin-2-yl)ethyl)-3,4-dihydroisoquinolin-1(2H)-one] yielded a Ki (Ki for Inhibition of WDR5 by TR-FRET assay) of less than 50 pM. With `CCn1cc(-c2cc(Cn3ccnc3)cc3c2CCN([C@H](c2cc(C)ccn2)C2CC2)C3=O)c(C(F)(F)F)n1` [Example 245, (S)-7-((1H-imidazol-1-yl)methyl)-2-(cyclopropyl(4-methylpyridin-2-yl)methyl)-5-(1-ethyl-3-(trifluoromethyl)-1H-pyrazol-4-yl)-3,4-dihydroisoquinolin-1(2H)-one], the Ki under setting [1] is less than 50 pM. The same measure, in the same setting: then `Cc1cc([C@H](C)N2CCc3c(cc(Cn4ccn(C)c4=N)cc3-c3ccc(F)cc3C)C2=O)ccc1F` [Example 40, (S)-5-(4-Fluoro-2-methylphenyl)-2-(1-(4-fluoro-3-methylphenyl)ethyl)-7-((2-imino-3-methyl-2,3-dihydro-1H-imidazol-1-yl)methyl)-3,4-dihydroisoquinolin-1(2H)-one], with less than 50 pM. The same measure, in the same setting: for `COc1ccnc(CN2CCc3c(cc(CN4CCOC4=N)cc3-c3cn(C)nc3C(F)(F)F)C2=O)c1` [Example 83, 7-((2-Iminooxazolidin-3-yl)methyl)-2-((4-methoxypyridin-2-yl)methyl)-5-(1-methyl-3-(trifluoromethyl)-1H-pyrazol-4-yl)-3,4-dihydroisoquinolin-1(2H)-one] the value was less than 50 pM; for `COc1cc(CN2CCc3cc(F)c(Cn4ccn(C)c4=N)cc3C2=O)cc(OC)c1` [Example 25, 2-(3,5-Dimethoxybenzyl)-6-fluoro-7-((2-imino-3-methyl-2,3-dihydro-1H-imidazol-1-yl)methyl)-3,4-dihydroisoquinolin-1(2H)-one], 6100 pM; for `CCn1cc(-c2cc(CN3CCCC3=N)cc3c2CCN(Cc2cc(OC)ccn2)C3=O)cn1` [Example 111, 5-(1-Ethyl-1H-pyrazol-4-yl)-7-((2-iminopyrrolidin-1-yl)methyl)-2-((4-methoxypyridin-2-yl)methyl)-3,4-dihydroisoquinolin-1(2H)-one], 1700 pM. Same read-out and setting: for `COc1cc(CN2CCc3c(OC4CCC4)cc(Cn4ccn(C)c4=N)cc3C2=O)cc(OC)c1` [Example 69, 5-Cyclobutoxy-2-(3,5-dimethoxybenzyl)-7-((2-imino-3-methyl-2,3-dihydro-1H-imidazol-1-yl)methyl)-3,4-dihydroisoquinolin-1(2H)-one] the value was 550 pM; for `CCn1cc(-c2cc(Cn3cnn(C)c3=N)cc3c2CCN([C@@H](C)c2cc(OC)ccn2)C3=O)c(C(F)(F)F)n1` [Example 152, (S)-5-(1-ethyl-3-(trifluoromethyl)-1H-pyrazol-4-yl)-7-((5-imino-1-methyl-1,5-dihydro-4H-1,2,4-triazol-4-yl)methyl)-2-(1-(4-methoxypyridin-2-yl)ethyl)-3,4-dihydroisoquinolin-1(2H)-one], less than 50 pM; for `COc1cc(CN2CCc3c(cc(Cn4cnc5ccccc54)cc3-c3ccc(F)cc3C)C2=O)cc(OC)c1` [Example 227], more than 33000 pM. As to `Cc1cc(CN2CCc3c(cc(Cn4ccn(C)c4=N)cc3-c3ccc(F)cc3C)C2=O)ccc1F` [Example 31, 5-(4-Fluoro-2-methylphenyl)-2-(4-fluoro-3-methylbenzyl)-7-((2-imino-3-methyl-2,3-dihydro-1H-imidazol-1-yl)methyl)-3,4-dihydroisoquinolin-1(2H)-one], the Ki under setting [1] is less than 50 pM.

For the origin of these results see US11999716B2, “WDR5 inhibitors and modulators” (priority 2018, dated 2024).
